Reference: the supplement of paper PMC4967469
A lower IC50 marks a more sensitive line; fits outside the tested doses are given as limits. AUC is the area under the same curve over the 256-fold range up to the top dose, as a fraction; values near 1 show little effect. For some assays here: An inferred top dose is not printed in the source and was worked back from the curve model. For some assays here: An entry number marks a drug with two screens in the source, which often give different values.

How the values were obtained:
Test in all cases: Viability of human cancer cell lines after 72 h of drug (GDSC screen)
JNJ-26854165 = compound: c1ccc2c(CCNc3ccc(Nc4ccncc4)cc3)c[nH]c2c1 [JNJ-26854165]; conditions: top dose 10 µM
Description: (§1)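 Human cancer cell lines in 384-well plates, medium with 10% serum, drug for 72 h over a 256-fold dose range (nine 2-fold or five 4-fold steps up to the top dose). Adherent lines were fixed and stained with the nucleic acid dye Syto60, suspension lines read with resazurin; signal relative to control wells, capped at 0 and 100%. One two-parameter sigmoid per drug and line, fitted in a mixed model over all curves with the slope shared within a line.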

JNK Inhibitor VIII = compound: CCOc1nc(NC(=O)Cc2cc(OC)ccc2OC)cc(N)c1C#N [JNK Inhibitor VIII]; conditions: top dose 10 µM; top dose inferred
Description: as §1

YM155 = compound: COCC[n+]1c2c(n(Cc3cnccn3)c1C)C(=O)c1ccccc1C2=O [YM155]; conditions: top dose 5.12 µM
Description: as §1

Belinostat = compound: O=C(/C=C/c1cccc(S(=O)(=O)Nc2ccccc2)c1)NO [Belinostat]; conditions: top dose 20 µM; top dose inferred
Description: as §1

NSC-207895 = compound: CN1CCN(c2ccc([N+](=O)[O-])c3no[n+]([O-])c23)CC1 [NSC-207895]; conditions: top dose 20 µM; top dose inferred
Description: as §1

SB-715992 = compound: Cc1ccc(C(=O)N(CCCN)[C@@H](c2nc3cc(Cl)ccc3c(=O)n2Cc2ccccc2)C(C)C)cc1 [SB-715992]; conditions: top dose 0.128 µM; top dose inferred
Description: as §1

JQ1 = compound: Cc1sc2c(c1C)C(c1ccc(Cl)cc1)=N[C@@H](CC(=O)OC(C)(C)C)c1nnc(C)n1-2 [JQ1]
Description: as §1

OSI-906 = compound: C[C@]1(O)C[C@@H](c2nc(-c3ccc4ccc(-c5ccccc5)nc4c3)c3c(N)nccn32)C1 [OSI-906]; conditions: top dose 2.56 µM; top dose inferred
Description: as §1

AMG-706 = compound: CC1(C)CNc2cc(NC(=O)c3cccnc3NCc3ccncc3)ccc21 [AMG-706]; conditions: top dose 2 µM; top dose inferred
Description: as §1

FTI-277 = compound: COC(=O)[C@H](CCSC)NC(=O)c1ccc(NC[C@@H](N)CS)cc1-c1ccccc1 [FTI-277]; conditions: top dose 1.024 µM; top dose inferred
Description: as §1

[1] = top dose 1 µM, screen: GDSC drug entry 1218, top dose inferred
[2] = top dose 2.56 µM, screen: GDSC drug entry 163

Row | Cell Line | AUC (JNJ-26854165) | IC50 (JNJ-26854165) [nM] | AUC (JNK Inhibitor VIII) | IC50 (JNK Inhibitor VIII) [nM] | AUC (YM155) | IC50 (YM155) [nM] | AUC (Belinostat) | IC50 (Belinostat) [nM] | AUC (NSC-207895) | IC50 (NSC-207895) [nM] | AUC (SB-715992) | IC50 (SB-715992) [nM] | AUC (JQ1; [1]) | IC50 (JQ1; [1]) [nM] | AUC (JQ1; [2]) | IC50 (JQ1; [2]) [nM] | AUC (OSI-906) | IC50 (OSI-906) [nM] | AUC (AMG-706) | IC50 (AMG-706) [nM] | AUC (FTI-277) | IC50 (FTI-277) [nM]
1 | 23132-87 (stomach, adherent) | 0.887 | > 10000 | 0.985 | > 10000 | 0.212 | 43.8 | 0.404 | 677 | 0.881 | > 20000 | 0.845 | 97.7 | 0.985 | > 1000 | 0.867 | 2450 | 0.961 | > 2560 | 0.944 | > 2000 | 0.976 | > 1020
2 | OE19 (oesophagus, adherent) | 0.964 | > 10000 | 0.982 | > 10000 | 0.575 | 526 | 0.849 | 18100 | 0.984 | > 20000 | 0.986 | > 128 | 0.969 | > 1000 | 0.798 | 1410 | 0.956 | > 2560 | 0.959 | > 2000 | 0.96 | > 1020
3 | ChaGo-K-1 (non-small cell lung carcinoma, adherent) | 0.902 | > 10000 | 0.95 | > 10000 | 0.182 | 29.2 | 0.629 | 3000 | 0.984 | > 20000 | 0.841 | 111 | 0.983 | > 1000 | 0.846 | 2330 | 0.943 | > 2560 | 0.887 | > 2000 | 0.98 | > 1020
4 | HuCCT1 (biliary tract, adherent) | 0.869 | > 10000 | 0.982 | > 10000 | 0.03 | < 20 | 0.467 | 1010 | 0.731 | 6190 | 0.897 | > 128 | 0.98 | > 1000 | 0.529 | 194 | 0.981 | > 2560 | 0.976 | > 2000 | 0.962 | > 1020
5 | PC-14 (lung adenocarcinoma, adherent) | 0.868 | 7500 | 0.984 | > 10000 | 0.055 | < 20 | 0.324 | 428 | 0.934 | > 20000 | 0.552 | 10.9 | 0.987 | > 1000 | 0.883 | 2220 | 0.975 | > 2560 | 0.984 | > 2000 | 0.966 | > 1020
6 | MDA-MB-361 (breast, adherent) | 0.831 | 6240 | 0.988 | > 10000 | 0.535 | 399 | 0.395 | 645 | 0.983 | > 20000 | 0.983 | > 128 | 0.986 | > 1000 | 0.59 | 281 | 0.98 | > 2560 | 0.974 | > 2000 | 0.95 | > 1020
7 | MIA-PaCa-2 (pancreas, adherent) | 0.89 | > 10000 | 0.91 | > 10000 | 0.312 | 90 | 0.606 | 2520 | 0.983 | > 20000 | 0.944 | > 128 | – | – | 0.711 | 674 | 0.834 | 1910 | 0.895 | > 2000 | 0.973 | > 1020
8 | SK-MES-1 (lung squamous cell carcinoma, adherent) | 0.868 | > 10000 | 0.972 | > 10000 | 0.054 | < 20 | 0.378 | 559 | 0.971 | > 20000 | 0.816 | 79 | 0.974 | > 1000 | 0.595 | 299 | 0.954 | > 2560 | 0.982 | > 2000 | 0.933 | > 1020
9 | NCI-H520 (lung squamous cell carcinoma, adherent) | 0.957 | > 10000 | 0.981 | > 10000 | 0.09 | < 20 | 0.415 | 726 | 0.985 | > 20000 | 0.545 | 10.7 | 0.983 | > 1000 | 0.832 | 1720 | 0.985 | > 2560 | 0.962 | > 2000 | 0.987 | > 1020
10 | NCI-H2085 (lung adenocarcinoma, adherent) | 0.963 | > 10000 | 0.983 | > 10000 | 0.066 | < 20 | 0.647 | 3310 | 0.892 | > 20000 | 0.855 | 116 | 0.928 | > 1000 | 0.777 | 1120 | 0.952 | > 2560 | 0.979 | > 2000 | 0.983 | > 1020
11 | RERF-LC-KJ (lung adenocarcinoma, adherent) | 0.957 | > 10000 | 0.984 | > 10000 | 0.188 | 35.9 | 0.819 | 11800 | 0.982 | > 20000 | 0.851 | 103 | 0.986 | > 1000 | 0.911 | > 2560 | 0.807 | 1360 | 0.973 | > 2000 | 0.982 | > 1020
12 | BHY (head and neck, adherent) | 0.924 | > 10000 | 0.924 | > 10000 | 0.037 | < 20 | 0.372 | 555 | 0.939 | > 20000 | 0.805 | 64.9 | 0.961 | > 1000 | 0.62 | 344 | 0.937 | > 2560 | 0.986 | > 2000 | 0.94 | > 1020
13 | NCI-H2087 (lung adenocarcinoma, semi-adherent) | 0.818 | 6190 | 0.979 | > 10000 | 0.031 | < 20 | 0.481 | 1110 | 0.953 | > 20000 | 0.707 | 32.4 | 0.984 | > 1000 | 0.641 | 405 | 0.955 | > 2560 | 0.972 | > 2000 | 0.977 | > 1020
14 | NCI-H1792 (lung adenocarcinoma, adherent) | 0.917 | > 10000 | 0.99 | > 10000 | 0.371 | 147 | 0.668 | 3490 | 0.99 | > 20000 | 0.955 | > 128 | 0.987 | > 1000 | 0.938 | > 2560 | 0.955 | > 2560 | 0.984 | > 2000 | 0.978 | > 1020
15 | RVH-421 (melanoma, adherent) | 0.851 | > 10000 | 0.98 | > 10000 | 0.551 | 463 | 0.682 | 4900 | 0.954 | > 20000 | 0.917 | > 128 | 0.963 | > 1000 | 0.743 | 1050 | 0.957 | > 2560 | 0.977 | > 2000 | 0.965 | > 1020
16 | LU-135 (small cell lung carcinoma, suspension) | 0.878 | 7260 | 0.99 | > 10000 | 0.016 | < 20 | 0.112 | 98.1 | 0.642 | 2870 | 0.973 | > 128 | 0.992 | > 1000 | 0.819 | 1150 | 0.987 | > 2560 | 0.985 | > 2000 | 0.991 | > 1020
17 | HDQ-P1 (breast, adherent) | 0.954 | > 10000 | 0.985 | > 10000 | 0.068 | < 20 | 0.413 | 689 | 0.868 | > 20000 | 0.963 | > 128 | 0.978 | > 1000 | 0.953 | > 2560 | 0.835 | 2170 | 0.981 | > 2000 | 0.984 | > 1020
18 | MKN1 (stomach, adherent) | 0.949 | > 10000 | 0.974 | > 10000 | 0.033 | < 20 | 0.533 | 1550 | 0.822 | 12500 | 0.925 | > 128 | 0.98 | > 1000 | 0.71 | 650 | 0.984 | > 2560 | 0.96 | > 2000 | 0.982 | > 1020
19 | NCI-H650 (lung adenocarcinoma, adherent) | 0.977 | > 10000 | 0.986 | > 10000 | 0.046 | < 20 | 0.497 | 1230 | 0.94 | > 20000 | 0.851 | 114 | 0.982 | > 1000 | 0.89 | > 2560 | 0.949 | > 2560 | 0.973 | > 2000 | 0.984 | > 1020
20 | MCF7 (breast, adherent) | 0.903 | > 10000 | 0.965 | > 10000 | 0.541 | 415 | 0.9 | > 20000 | 0.986 | > 20000 | 0.984 | > 128 | – | – | – | – | 0.822 | 1570 | 0.956 | > 2000 | 0.986 | > 1020
21 | SW1783 (glioma, adherent) | 0.881 | 8660 | 0.988 | > 10000 | 0.373 | 149 | 0.519 | 1400 | 0.991 | > 20000 | 0.991 | > 128 | – | – | – | – | 0.939 | > 2560 | 0.981 | > 2000 | 0.916 | > 1020
